Source: PubChem BioAssay AID1347165 (National Center for Advancing Translational Sciences (NCATS), 2019)
Out of some 220,000 compounds screened, about 5,700 (2.6%) were called active. This list was built around the results that the source calls inconclusive (neither active nor inactive); the mix of calls is not that of the screen. Calls come from the whole dose curve; as a rule, active = well fitted inhibition curve with a large enough effect; inconclusive = small, poorly fitted or top-dose-only effect; inactive = no such curve, though single readings can be large or run the other way. Where the call is inconclusive, the potency comes from a doubtful curve fit.
Note: nearly all actives have a fitted effect of over 70% in size.
Potency is the fitted concentration of half-maximal effect; tags give direction and shape of the fitted curve.

What follows are compounds tested against Lysine-specific demethylase 5B (Homo sapiens) (UniProt Q9UGL1) (assay: Primary screen for KDM5B Histone Demethylases FDH-coupled qHTS). Conditions: FDH-coupled NADH fluorescence (FDH is formaldehyde dehydrogenase); series mostly up to 57.7 µM.
Sequence of UniProt Q9UGL1 (Q9UGL1 whole entry, looked up): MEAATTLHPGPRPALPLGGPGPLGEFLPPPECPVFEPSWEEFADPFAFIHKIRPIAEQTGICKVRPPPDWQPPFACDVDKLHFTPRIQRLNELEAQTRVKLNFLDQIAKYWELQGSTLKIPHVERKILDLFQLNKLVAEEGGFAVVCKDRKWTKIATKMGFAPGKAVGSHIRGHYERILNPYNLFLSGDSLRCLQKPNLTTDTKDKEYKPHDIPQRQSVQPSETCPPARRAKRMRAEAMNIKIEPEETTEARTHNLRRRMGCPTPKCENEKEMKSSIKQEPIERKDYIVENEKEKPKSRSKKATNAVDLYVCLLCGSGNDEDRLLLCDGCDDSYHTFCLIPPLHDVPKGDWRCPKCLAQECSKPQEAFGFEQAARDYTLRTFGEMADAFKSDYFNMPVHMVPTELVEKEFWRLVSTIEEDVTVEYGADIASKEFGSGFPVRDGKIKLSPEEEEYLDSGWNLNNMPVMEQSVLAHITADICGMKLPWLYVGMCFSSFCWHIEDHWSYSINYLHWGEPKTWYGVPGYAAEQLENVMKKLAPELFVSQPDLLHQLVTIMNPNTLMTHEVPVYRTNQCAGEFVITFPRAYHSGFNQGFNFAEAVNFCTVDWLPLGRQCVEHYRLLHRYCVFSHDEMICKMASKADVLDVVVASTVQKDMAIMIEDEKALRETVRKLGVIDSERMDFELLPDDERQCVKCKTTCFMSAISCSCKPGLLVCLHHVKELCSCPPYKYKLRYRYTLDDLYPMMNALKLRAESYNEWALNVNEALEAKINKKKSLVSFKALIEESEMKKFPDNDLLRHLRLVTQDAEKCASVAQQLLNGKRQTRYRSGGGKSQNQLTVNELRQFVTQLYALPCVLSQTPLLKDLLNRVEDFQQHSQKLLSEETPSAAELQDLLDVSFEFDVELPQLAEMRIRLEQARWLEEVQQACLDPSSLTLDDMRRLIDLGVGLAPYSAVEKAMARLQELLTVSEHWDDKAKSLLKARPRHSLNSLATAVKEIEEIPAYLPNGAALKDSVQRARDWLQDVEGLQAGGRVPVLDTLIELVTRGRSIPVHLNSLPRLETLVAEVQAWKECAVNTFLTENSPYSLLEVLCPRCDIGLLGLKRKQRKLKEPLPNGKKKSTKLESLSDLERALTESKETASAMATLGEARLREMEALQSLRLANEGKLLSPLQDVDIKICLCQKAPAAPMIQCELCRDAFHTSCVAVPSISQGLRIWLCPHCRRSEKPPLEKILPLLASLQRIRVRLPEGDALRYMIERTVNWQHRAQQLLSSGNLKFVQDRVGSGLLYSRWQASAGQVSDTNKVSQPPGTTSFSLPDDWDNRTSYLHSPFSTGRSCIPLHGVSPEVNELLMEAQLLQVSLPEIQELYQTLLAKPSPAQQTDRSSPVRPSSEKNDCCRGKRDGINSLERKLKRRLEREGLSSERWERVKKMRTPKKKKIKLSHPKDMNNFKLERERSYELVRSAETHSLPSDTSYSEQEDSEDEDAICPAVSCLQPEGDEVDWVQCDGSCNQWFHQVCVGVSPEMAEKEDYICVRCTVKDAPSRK
In short: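 Compound dilutions met 200 nM (final) KDM5BΔAP for 10 min at room temperature before substrate addition. The substrate mix held 12.5 µM H3K4me3 with cofactors 25 µM α-ketoglutarate and 50 µM Fe²⁺. NADH signal gain over 30 min defined activity.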
`COc1ccc(-c2cc(-c3ccccc3)nc3c2COc2ccccc2-3)cc1` was tested, and the Potency was inconclusive: 28.2 µM [inhibitor, partial curve, poor fit]. For `CCCn1cc(S(=O)(=O)c2cc(C)ccc2C)c(=O)c2cc(F)c(N3CCCCCC3)cc21`, the Potency was inconclusive: 1.58 µM [inhibitor, full curve, poor fit]. In the case of `O=C(NC[C@H]1O[C@@H](CO)[C@@H](O)[C@H]1N1CCc2ccccc2C1)c1ccco1`, the Potency was inconclusive: 35.5 µM [inhibitor, single point]. `CCOc1ccc(NCc2cccn2-c2nnc(N3CCC(C(=O)NCc4cccc(OC)c4)CC3)s2)cc1` was tested, and the Potency was inconclusive: 2.24 µM [inhibitor, full curve, poor fit]. For `Cc1cc(C)cc(NC(=O)c2n[nH]c(=O)c3ccccc23)c1`, the Potency was “inactive”. `CC(C)(C)c1nc(C(C)(C)NC(=O)C2Cc3ccccc3O2)no1` (stereo not drawn) was tested, and the Potency was “inactive”. In the case of `CN(Cc1ncc[nH]1)Cc1cn(-c2ccccc2)nc1-c1ccc2c(c1)OCO2`, the Potency was inconclusive: 28.2 µM [inhibitor, single point]. In the case of `O=C(Nc1ccc(N2CCCC2=O)cc1)c1ccc(Cl)cc1N1CCCC1=O`, the Potency was “inactive”. With `COc1ccc2c(c1)c1c(c(=O)n(-c3cccc(C)c3)c(=O)n1CC(=O)N1CCCC1)n2C` the Potency was inconclusive: 28.2 µM [inhibitor, partial curve, poor fit]. In the case of `N#CC1=C(N)OC2=C(C(=O)CCC2)C1c1ccc(-c2c(Cl)cc(Cl)cc2Cl)o1` (stereo not drawn), the Potency was “inactive”. For `COc1ccc(-c2nc(N3CCOCC3)cc3c2CN(Cc2ccccc2)C3=O)cn1`, the Potency was active: 35.5 µM. `O=C(NC1CCCC1)C1(c2cccc(Cl)c2)CCC1` was tested, and the Potency was “inactive”. `CN1C(=O)Cc2cc(S(=O)(=O)CCC(=O)N3CCN(c4cccc(Cl)c4)CC3)ccc21` was tested, and the Potency was inconclusive: 39.8 µM [inhibitor, single point]. With `CC(C)c1ccccc1NC1=NS(=O)(=O)c2ccccc21` the Potency was “inactive”. `CC(C)(CN1CCOCC1)NC(=O)c1csc2nc(-c3ccc(F)cc3)cn12` was tested, and the Potency was inconclusive: 15.8 µM [inhibitor, partial curve]. With `CCOc1ccccc1CN1CCCC(c2nc(-c3cccnc3)no2)CCNC(=O)CC1` (stereo not drawn) the Potency was “inactive”. With `CCN(CC)S(=O)(=O)c1ccc(N/N=C/c2cccs2)c([N+](=O)[O-])c1` the Potency was “inactive”. For `COC(=O)N1CCC2(CC1)C(=O)NCN2Cc1ccc(Cl)cc1`, the Potency was “inactive”. In the case of `CCc1ccc(S(=O)(=O)c2nnn3c2nc(NCCOC)c2ccccc23)cc1`, the Potency was inconclusive: 56.2 µM [inhibitor, partial curve, poor fit]. With `COc1ccc(CNC(=O)C2CCN(S(=O)(=O)c3ccc4nc5c(c(C(=O)O)c4c3)CC(C)CC5)CC2)cc1` (stereo not drawn) the Potency was inconclusive: 17.8 µM [inhibitor, partial curve, poor fit]. In the case of `CCC1=C(C(=O)OC)C(c2ccccc2F)N2C(CC(=O)NC3CC3)=CSC2=N1` (stereo not drawn), the Potency was inconclusive: 20 µM [inhibitor, partial curve, poor fit]. In the case of `O=C(NCc1nncn1C1CCCCC1)C1NCCc2[nH]cnc21` (stereo not drawn), the Potency was inconclusive: 20 µM [inhibitor, single point]. With `CCS(=O)CCSc1nc(-c2ccccc2)cc(-c2ccccc2)c1C#N` (stereo not drawn) the Potency was “inactive”. With `N#Cc1nc(-c2ccco2)oc1N1CCN(C(=O)c2ccc(F)cc2F)CC1` the Potency was “inactive”. `NNc1ccc(Br)c2ccccc12` was tested, and the Potency was inconclusive: 14.1 µM [inhibitor, partial curve, poor fit]. `COc1cccc(-c2nc(N(C)C3CCCCC3)c3ccccc3n2)c1O` was tested, and the Potency was “inactive”. With `CN(C)c1ccc(NC(=O)c2cccc3ccccc23)cc1` the Potency was “inactive”. With `O=C(O)C[C@@H]1CCN(C(=O)Nc2ccccc2)C[C@@H]1CC1=NCCc2cc(F)ccc21` the Potency was inconclusive: 28.2 µM [inhibitor, single point]. `CCOC(=O)c1cc(-c2ccccc2)n(CCCC(=O)Nc2ccc(C)cc2Cl)c1C` was tested, and the Potency was inconclusive: 15.8 µM [inhibitor, partial curve, poor fit]. `COCCNC(=S)N/N=C/c1cc(OC)c(OC)cc1OC` was tested, and the Potency was inconclusive: 28.2 µM [inhibitor, single point]. With `O=C(NC(Cc1ccccc1)C(=O)O)/C(=C\c1cccc([N+](=O)[O-])c1)NC(=O)c1ccco1` (stereo not drawn) the Potency was inconclusive: 2.51 µM [inhibitor, full curve, poor fit]. With `COc1cccc(C(=O)N2CCC(N3C[C@H](O)C[C@H]3C(=O)NCc3cc(F)cc(F)c3)CC2)c1` the Potency was “inactive”. In the case of `O=C1C(N2CCN(Cc3ccc[nH]3)CC2)CCN1Cc1cccnc1` (stereo not drawn), the Potency was inconclusive: 14.1 µM [inhibitor, partial curve, poor fit]. For `CCn1nc(-c2ccc(C)c(S(=O)(=O)NC3CC3)c2)c2c(c1=O)CCCC2`, the Potency was “inactive”. In the case of `COc1ccc2c(COC(=O)c3cccc4ccccc34)cc(=O)oc2c1`, the Potency was inconclusive: 1.78 µM [inhibitor, partial curve, poor fit]. For `COc1ccc(-c2cc(OC(=O)c3cccc(C)c3)c3c(C)oc(C)c3c(=O)c2)cc1`, the Potency was inconclusive: 28.2 µM [inhibitor, partial curve, poor fit]. `CCN(CC)C(CNC(=O)c1cn(C)c2ccccc12)c1ccccc1` (stereo not drawn) was tested, and the Potency was “inactive”. `N=C(N)c1cc(Cl)cc([N+](=O)[O-])c1` was tested, and the Potency was “inactive”. `NC(=O)c1cccc(-c2cc3c(cn2)CN(CCc2ccccc2)CCN3)c1` was tested, and the Potency was inconclusive: 39.8 µM [inhibitor, partial curve, poor fit]. With `Cn1c(C(=O)NCCN2CCCCC2)cc2c1CCN(Cc1cccc(F)c1)C2` the Potency was inconclusive: 22.4 µM [inhibitor, partial curve, poor fit]. In the case of `COC(=O)C(C(=O)OC)C(CC(C(C(=O)OC)C(=O)OC)C(C(=O)OC)C(=O)OC)c1cc(OC)ccc1Br` (stereo not drawn), the Potency was “inactive”. In the case of `CC(=O)C1=C(c2ccc(Cl)c(Cl)c2)N(C(C)=O)n2cnnc2S1`, the Potency was inconclusive: 15.8 µM [inhibitor, partial curve, poor fit]. In the case of `Cc1ccc(OCCC2CCN(C(=O)CCCC(=O)n3nc(C)c4ccccc43)C2)cc1` (stereo not drawn), the Potency was inconclusive: 20 µM [inhibitor, single point].
